Patent publication US20130066055A1 (Bayer, published 2013)

T1: C4.4a receptor (complete), on transfected A549 cells (UniProt O95274 31-326, limits assumed)
T1 sequence (looked up): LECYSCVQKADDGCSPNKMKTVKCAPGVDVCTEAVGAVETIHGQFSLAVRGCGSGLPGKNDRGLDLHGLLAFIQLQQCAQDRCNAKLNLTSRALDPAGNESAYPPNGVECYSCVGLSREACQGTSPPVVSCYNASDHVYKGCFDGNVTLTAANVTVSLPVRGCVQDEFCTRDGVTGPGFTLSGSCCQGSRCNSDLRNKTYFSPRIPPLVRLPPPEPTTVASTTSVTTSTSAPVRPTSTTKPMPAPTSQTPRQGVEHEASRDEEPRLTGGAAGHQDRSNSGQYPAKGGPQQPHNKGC


Biological target: T1, C4.4a receptor (complete), on …
Assay: cell-based or functional assay

Row | IC50 [nM] A549: C4.4a [nM] | Binder
1 | 0.32 | ADC of Example 119 (anti-C4.4a B01-3) (antibody, human IgG1, lambda, linker-toxophore on Cys (S)) light: ESVLTQPPSVSGAPGQRVTISCTGSSSNIGAGYVVHWYQQLPGTAPKLLIYDNNKRPSGVPDRFSGSKSGTSASLAISGLRSEDEADYYCAAWDDRLNGPVFGGGTKLTVLGQPKAAPSVTLFPPSSEELQANKATLVCLISDFYPGAVTVAWKADSSPVKAGVETTTPSKQSNNKYAASSYLSLTPEQWKSHRSYSCQVTHEGSTVEKTVAPTECS heavy: EVQLLESGGGLVQPGGSLRLSCAASGFTFSNAWMSWVRQAPGKGLEWVSYISSSGSTIYYADSVKGRFTISRDNSKNTLYLQMNSLRAEDTAVYYCAREGLWAFDYWGQGTLVTVSS[in this place human IgG1 constant region]
2 | 0.07 | ADC of Example 120 (anti-C4.4a B01-3) (antibody, human IgG1, lambda, linker-toxophore on Lys (NH)) light: ESVLTQPPSVSGAPGQRVTISCTGSSSNIGAGYVVHWYQQLPGTAPKLLIYDNNKRPSGVPDRFSGSKSGTSASLAISGLRSEDEADYYCAAWDDRLNGPVFGGGTKLTVLGQPKAAPSVTLFPPSSEELQANKATLVCLISDFYPGAVTVAWKADSSPVKAGVETTTPSKQSNNKYAASSYLSLTPEQWKSHRSYSCQVTHEGSTVEKTVAPTECS heavy: EVQLLESGGGLVQPGGSLRLSCAASGFTFSNAWMSWVRQAPGKGLEWVSYISSSGSTIYYADSVKGRFTISRDNSKNTLYLQMNSLRAEDTAVYYCAREGLWAFDYWGQGTLVTVSS[in this place human IgG1 constant region]
